Experimental data taken from US20050112573A1, “Method of detecting toxic substance” (priority 2001, published 2005).
Like-named read-outs stand apart in the source and are kept apart here. At least one read-out could not be matched to a standard name with certainty.

Assays:
Assay type in all cases: cell-based, Saccharomyces cerevisiae W303
[1] = system: promoter of yeast gene YCR102c
Text: (§1) The inventors of the present application understood that the induction of certain yeast genes by toxic substances is caused by the activation of the promoters of the genes by the toxic substances. Thus, the inventors prepared a vector that comprised a polynucleotide sequence comprising the promoter of the yeast gene, which sequence is operably linked to a polynucleotide encoding a marker protein; and transformed yeast cells with the vector. […] The working examples hereinafter illustrate the preparation of such vectors, transformation of yeast cells by use of said vectors, and the detection of toxic substances by use of the transformed cells.
(§2) Promoter assay is a method for determining variations of the level of intracellular genes without destroying cells on the basis of the level of expressed marker genes instead of the expressed mRNA. The gene selected to detect a chemical substance is expressed in the absence of chemical substances, and thus a marker protein also occurs in the absence of chemical substances. In the method according to the present invention, the behavior of yeast genes on the addition of test materials is determined on the basis of the level of expressed marker protein so that the presence or the absence, and the kind of toxic chemical substances are predicted. Thus, it is desired that the production of marker proteins is lower in the absence of chemical substances, and the production of marker proteins is higher in the presence of chemical substances.
(§3) Type YEp shuttle vector pYES2 (pYES2, Cat no: V825-20, Invirtogen Corporation, USA), which can be replicated both in E. coli. and yeast was used as vector (R. W. Old, S. B. Primrose Principles of Gene Manipulation 5th Ed., BAIFUKAN CO., LTD, pp138-165, pp.234-263, 2000). The portion of vector PQBI 63 (Cat no.54-0082, Wako Pure Chemical Industries, Ltd.) corresponding to a marker protein GFP was used as the polynucleotide encoding GFP (SEQ ID No: 6). First, the GFP polynucleotide was inserted into the multiple cloning sites of pYES2 to give a vector. Thereafter, the GALL promoter of pYES2 was replaced with the polynucleotide comprising the promoter sequence of the intended yeast gene YCR102c (SEQ ID No: 2) to give an intended plasmid vector. Suitable restriction enzymes were selected, and the insertion of the polynucleotide comprising GFP and the promoter sequence was conducted.
(§4) Next, the yeast Saccharomyces cerevisiae W303 was transformed with the resultant plasmid vector according to the following procedures: • 1) Incubating the yeast Saccharomyces cerevisiae W303 in 200 ml of SD medium under shaking until OD 660 reaches 0.5; • 2) Suspending the collected cells in 5 ml of TE-buffer; • 3) Adding 250 μL of 2.5M lithium acetate; • 4) Dispending each 300 μl, adding 10 μl of above plasmid vector thereto, then incubating the suspensions at 30° C. for 30 minutes; • 5) Adding 700 μl of 50% PEG4000, and incubating the mixture under shaking at 30° C. for 60 minutes; • 6) Giving heat shock (42° C., 5 minutes), and then immediately cooling the mixture; • 7) Washing the mixture twice with 1M sorbitol; and • 8) Seeding it on agar plates made of minimum essential medium.
(§5) The cells of SC-YCR102C-pQBI as prepared in Example 3 were contacted to one of the following compounds. The yeast cells SC-YCR102C-pQBI were incubated at 25° C. in SD medium (Yeast nitrogen base without amino acids (Difco 0919-15)+glucose+amino acids (adenine, histidine, tryptophan)). One of toxic chemical substances as shown below was added to the cells at logarithmic growth phase, and then the cells were further incubated for two hours.

[2] = system: promoter of yeast gene YLL057c
Text: as §1, §2
as §3, with “YLL057c” for “YCR102c”, “4)” for “2)”
as §4
as §5, with “SC-YLL057C-pQBI” for “SC-YCR102C-pQBI”, “5” for “3”

[3] = system: promoter of yeast gene YLR303w
Text: as §1, §2
as §3, with “pQBI” for “PQBI”, “GAL1” for “GALL”, “YLR303w” for “YCR102c”, “5)” for “2)”
as §4
as §5, with “SC-YCR303W-pQBI” for “SC-YCR102C-pQBI”, “6” for “3”

[4] = cells SC-YCR102C-pQBI, 2 hours incubation with the substance at the concentration printed in its row (column Concentrations), GFP fluorescence vs control without chemical
[5] = cells SC-YLL057C-pQBI, 2 hours incubation with the substance at the concentration printed in its row (column Concentrations), GFP fluorescence vs control without chemical
[6] = cells SC-YCR303W-pQBI (so in the source), 2 hours incubation with the substance at the concentration printed in its row (column Concentrations), GFP fluorescence vs control without chemical

SMILES | Fluorescence [1, 4] | Fluorescence [2, 5] | Fluorescence [3, 6] | Fluorescence [1] | Fluorescence [2] | Fluorescence [3]
C[S+](C)[O-] [(15), dimethylsulfoxide] | − (the number of the cells having a higher fluorescence than the control was under 1%) | − (the number of the cells having a higher fluorescence than the control was under 1%) | − (the number of the cells having a higher fluorescence than the control was under 1%) | – | – | –
Oc1cc(Cl)ccc1Cl [2,5-dichlorophenol] | − (the number of the cells having a higher fluorescence than the control was under 1%) | − (the number of the cells having a higher fluorescence than the control was under 1%) | − (the number of the cells having a higher fluorescence than the control was under 1%) | – | – | –
c1ccc2c(c1)cc1ccc3cccc4ccc2c1c34 [benzo(a)pyrene] | − (the number of the cells having a higher fluorescence than the control was under 1%) | − (the number of the cells having a higher fluorescence than the control was under 1%) | ++ (2% or more) | – | – | –
CN(C)C(=S)SSC(=S)N(C)C [(10), Tetramethylthiuram disulfide] | + (between 1% and 2%) | − (the number of the cells having a higher fluorescence than the control was under 1%) | − (the number of the cells having a higher fluorescence than the control was under 1%) | – | – | –
Oc1cc(Cl)ccc1Oc1ccc(Cl)cc1Cl [triclosan] | − (the number of the cells having a higher fluorescence than the control was under 1%) | − (the number of the cells having a higher fluorescence than the control was under 1%) | − (the number of the cells having a higher fluorescence than the control was under 1%) | – | – | –
Oc1c(Cl)cc(Cl)c(Cl)c1Cc1c(O)c(Cl)cc(Cl)c1Cl [hexachlorophene] | − (the number of the cells having a higher fluorescence than the control was under 1%) | − (the number of the cells having a higher fluorescence than the control was under 1%) | − (the number of the cells having a higher fluorescence than the control was under 1%) | – | – | –
O=[N+]([O-])c1cc[n+]([O-])c2ccccc12 [(5), 4-nitroquinolin-N-oxide] | − (the number of the cells having a higher fluorescence than the control was under 1%) | − (the number of the cells having a higher fluorescence than the control was under 1%) | − (the number of the cells having a higher fluorescence than the control was under 1%) | – | – | –
Oc1c(Cl)c(Cl)c(Cl)c(Cl)c1Cl [pentachlorophenol] | − (the number of the cells having a higher fluorescence than the control was under 1%) | − (the number of the cells having a higher fluorescence than the control was under 1%) | − (the number of the cells having a higher fluorescence than the control was under 1%) | – | – | –
O=C(O)COc1ccc(Cl)cc1Cl [2,4-dichlorophenoxyacetic acid] | − (the number of the cells having a higher fluorescence than the control was under 1%) | ++ (2% or more) | ++ (2% or more) | – | – | –
Oc1cc(Cl)c(Cl)cc1Cl [(6), 2,4,5-trichlorophenol] | – | – | – | − (key: −: the number of the cells having a higher fluorescence than the control was under 1%; +: between 1% and 2%; ++: 2% or more) | − (key: −: the number of the cells having a higher fluorescence than the control was under 1%; +: between 1% and 2%; ++: 2% or more) | − (key: −: the number of the cells having a higher fluorescence than the control was under 1%; +: between 1% and 2%; ++: 2% or more)
CCCCCCCCCc1ccc(O)cc1 [p-nonylphenol] | − (the number of the cells having a higher fluorescence than the control was under 1%) | − (the number of the cells having a higher fluorescence than the control was under 1%) | − (the number of the cells having a higher fluorescence than the control was under 1%) | – | – | –
C[n+]1ccc(-c2cc[n+](C)cc2)cc1 [paraquat] | − (the number of the cells having a higher fluorescence than the control was under 1%) | − (the number of the cells having a higher fluorescence than the control was under 1%) | − (the number of the cells having a higher fluorescence than the control was under 1%) | – | – | –
CC(C)(c1ccc(O)cc1)c1ccc(O)cc1 [bisphenol-A] | − (the number of the cells having a higher fluorescence than the control was under 1%) | − (the number of the cells having a higher fluorescence than the control was under 1%) | − (the number of the cells having a higher fluorescence than the control was under 1%) | – | – | –
